Laboratory results as given in PubChem BioAssay AID1508642 (National Center for Advancing Translational Sciences (NCATS), 2021).
The campaign covered roughly 43,000 compounds. About 200 (0.47%) were called active. About 12% were inconclusive and are not listed. The call rests on the fitted dose curve; in most records, active means well fitted cell-killing curve with a large enough effect; inconclusive means small, poorly fitted or top-dose-only effect, or effect the other way; inactive means flat fitted curve, though single readings scatter. This is one part of the list.

assay: Cell viability qHTS assay in S16 Pmp22-F2sN cells; details: S16 Pmp22-F2sN Schwann cells (luciferase reporters placed in the Pmp22 gene) viability, CellTiter-Glo, 24 h; series mostly up to 57.5 µM; activity change, negative = cytotoxicity: at the top concentration; further: nearly all actives have a fitted effect of over 65% in size
Method in brief: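 Seed 500-1,000 S16 Pmp22-F2sN cells per well in phenol-red-free DMEM with 10% heat-inactivated FBS; pin-add 23 nL compound; incubate 24 h at 37C; add CellTiter-Glo, wait 15 min protected from light; read luminescence.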
On the % scale 0 is the no-effect control and ±100 the full control effect.

Compound	activity change, negative = cytotoxicity
COc1ccc(CC(=O)NCCc2sc(-c3cccc(F)c3)nc2C)cc1	inactive: 0.701%
Cc1ccc(Cn2c(C)c(CNCc3ccc(OC(C)C)cc3)c(C(=O)O)c2C)cc1	inactive: 2.23%
CCOc1ccc(CCNC(=O)c2ccc(CS(=O)Cc3ccc(Cl)cc3)o2)cc1 (stereo unspecified)	inactive: -21.3%
COc1ccc(N2CCN(C(=O)c3nn(-c4ccc(C)cc4)c(=O)n(C)c3=O)CC2)cc1	inactive: 6.55%
CCOC(=O)c1cc(-c2ccc(OC)cc2)nn1Cc1ccccc1	inactive: 4.41%
Cc1ccc(CSc2nc3c(c(=O)[nH]2)C(c2cccc(F)c2F)CC(=O)N3)cc1 (stereo unspecified)	inactive: -2.47%
Cc1ccc(OCC(=O)Nc2ccc3nc(SCC(=O)N(C)c4ccccc4)sc3c2)cc1	inactive: -4.95%
COc1ccc(NC(=O)c2sc3nc[nH]c(=O)c3c2C)cc1OC	inactive: 1.57%
COc1cccc(CNC(=O)CN(C)S(=O)(=O)c2ccc3c(c2)c(=O)n(C)c(=O)n3C)c1	inactive: 4.11%
CC(C)c1ccc(NC(=O)C(Cc2ccccc2)NS(=O)(=O)c2ccc3c(c2)CCC(=O)N3)cc1 (stereo unspecified)	inactive: 5.05%
Cn1nnnc1SCCNCc1ccccc1Cl	inactive: 9.84%
COc1cc2ncc3c(-c4ccccc4)nn(-c4ccc(C)cc4)c3c2cc1OC	inactive: 5.36%
COc1ccc(Cn2c(CO)cnc2SCC(=O)NCc2ccco2)cc1	inactive: 8.43%
Cc1ccc(C)c(CN2C(=O)c3ccccc3Sc3ccc(C(=O)NCc4ccc5c(c4)OCO5)cc32)c1	inactive: 4.33%
COc1cc(NC(=O)CC(C)S(=O)(=O)c2cc3c4c(c2)CCN4C(=O)CC3)cc(OC)c1 (stereo unspecified)	inactive: 6.84%
Cc1ccccc1C(=O)Nc1cccc(C(=O)OCc2cc(=O)n3nc(C4CC4)sc3n2)c1	inactive: 2.9%
CC(=O)c1cccc(NC(=O)c2ccc3nc(C(C)C)oc3c2)c1	inactive: 12.3%
COc1ccc(-c2nc(Cn3c(SCc4ccc(F)cc4)nc4cccnc43)c(C)o2)cc1	inactive: -2.14%
COc1ccc(NC(=O)c2c(NC(=O)c3cccc(C)c3)sc3c2CCCC3)cc1	inactive: 0.472%
Cc1ccc([N+](=O)[O-])cc1S(=O)(=O)N1CCn2cccc2C1c1ccc(F)c(F)c1 (stereo unspecified)	inactive: -3.09%
Cc1ccc(OCC(=O)N(Cc2sccc2C)C2CCS(=O)(=O)C2)cc1 (stereo unspecified)	inactive: 7.84%
Cc1ccccc1NC(=O)Nc1cccs1	inactive: -12.9%
O=C1c2oc3ccccc3c(=O)c2C(c2cccc(Br)c2)N1c1ccccn1 (stereo unspecified)	inactive: 7.97%
CCCCN(C)C(=O)Cn1cnc2sc(C)c(S(=O)(=O)N3CCN(c4ccccc4OC)CC3)c2c1=O	inactive: 1.81%

Compound	activity change, negative = cytotoxicity
CCOc1ccc(NC(=O)Cn2c(CCC(=O)O)ccc2-c2ccc(C)cc2)cc1	inactive: -3.42%
COc1ccc(-c2noc(CSc3nnc(-c4ccncc4)n3-c3ccc(C)c(C)c3)n2)cc1	inactive: -24.4%
Clc1ccc(Nc2nc(-c3ccccc3)c3cc(Cl)ccc3n2)cc1	inactive: 12.5%
Cc1ccc2onc(CC(=O)N3CCN(c4cccc(C)c4C)CC3)c2c1	inactive: -12.4%
Cc1cc(=O)n2nc(N3CCC(C(=O)NCc4ccc(Cl)cc4)CC3)sc2n1	inactive: -3.08%
O=C(Cn1c(=O)nc(-c2ccccc2)c2cc(Cl)ccc21)NCCc1ccccc1	inactive: -0.844%
COc1cc(Cl)c(C)cc1NC(=O)c1cc2c(s1)-c1c(C)cccc1OC2	inactive: -5.14%
Cc1cc2[nH]c(=O)c(=O)[nH]c2cc1S(=O)(=O)Nc1cccc(C(F)(F)F)c1	inactive: 5.61%
Cc1sc2ncn(CC(=O)N3CCN(c4ccc(F)cc4)CC3)c(=O)c2c1S(=O)(=O)N1CCN(c2ncccn2)CC1	inactive: 19.4%
CCc1nn(CC(=O)N2CCN(c3cccc(C)c3C)CC2)c(=O)c2cc3sccc3n12	inactive: 3.9%
CCC(=O)N1CCc2cc(S(=O)(=O)NC(CC(C)C)C(=O)NCc3ccc(C)cc3)ccc21 (stereo unspecified)	inactive: -2.68%
O=C(c1cc(F)cc(F)c1)N1CCC(c2nc(-c3ccc(S(=O)(=O)N4CCCC4)cc3)no2)CC1	inactive: -0.526%
COc1ccc(OC)c(CCNC(=O)c2cc3c(=O)n(C)c4ccccc4c3n2C)c1	inactive: 14.3%
CCOc1ccc(NC(=O)CN2CCN(c3ccc(Cl)cc3)CC2)cc1	inactive: -0.223%
CCc1cccc(NC(=O)CCN2C(=O)c3ccccc3Sc3ncccc32)c1	inactive: -11%
CCOC(=O)c1cccc(NC(=O)C2CCCN(S(=O)(=O)c3cc(Br)cc4c3N(C(=O)CC)CC4)C2)c1 (stereo unspecified)	inactive: -0.283%
COc1ccc(CN(C(=O)Cc2coc3ccc(C)cc23)C2CCS(=O)(=O)C2)cc1 (stereo unspecified)	inactive: -0.23%
Cc1cc(=O)n2nc(N(C)CC(=O)NCc3ccc(Cl)cc3)sc2n1	inactive: 5.58%
Cn1ncc(C(=O)N2CCN(c3ccccc3F)CC2)c1C1CCN(C(=O)OC(C)(C)C)CC1	inactive: -0.765%
Cc1cc(SCC(=O)NCc2ccc(F)cc2)nc(=O)[nH]1	inactive: -6.26%
CC(=O)c1ccc(NC(=O)CSc2nccn2Cc2ccc3c(c2)OCO3)cc1	inactive: -14.7%
COc1cc(NC(=O)c2ncn(-c3ccccc3)n2)cc(OC)c1	inactive: 2.78%
O=C(COCc1cc(-c2ccco2)on1)Nc1cccc(Cl)c1Cl	inactive: 6.9%
CCOc1ccccc1-n1nnc(S(=O)(=O)c2ccc(C)cc2)c1N	inactive: -14.3%

Compound	activity change, negative = cytotoxicity
Cc1ccc(NC(=O)c2nc(-c3ccncc3)no2)c(Cl)c1	inactive: 7.59%
COc1ccc(C2N3CC4(C)CN2CC(c2ccccc2)(C3)C4=O)cc1 (stereo unspecified)	inactive: 1.47%
CCCCN(CC)CCCNC(=O)c1cn(CC)c2ccc(S(=O)(=O)N3CCOCC3)cc2c1=O	inactive: -1.32%
CC(C)c1ccc(NC(=O)CCNS(=O)(=O)c2cccc3nsnc23)cc1	inactive: 4.83%
COc1ccc(C(=O)Oc2ccc(C(c3c(C)[nH][nH]c3=O)c3c(C)[nH][nH]c3=O)cc2OC)cc1	inactive: 6.62%
CN1CCN(CCC(=O)Nc2ccc(Cl)cc2)CC1	inactive: -1.4%
CCOc1ccc(NC(=O)c2oc3ccccc3c2NC(=O)Cc2cccc(C)c2)cc1	inactive: 16.4%
COc1ccc(OC)c(NS(=O)(=O)c2ccc(Br)s2)c1	inactive: -0.858%
O=C(COc1ccc(Cl)cc1)NCCc1csc(-c2cccc(F)c2)n1	inactive: -1.26%
CCCN1C(C(=O)c2ccccc2)=C(OC(=O)c2ccc(C)cc2)c2ccccc2S1(=O)=O	inactive: -21.3%
Cc1ccc(NC(=O)Cn2c(=O)ccc3cc(S(=O)(=O)N4CCC(C)CC4)ccc32)cc1C	inactive: -0.758%
Cc1cccc(NC(=O)CSc2nc(=O)n(Cc3cccnc3)c3c2CCC3)c1	inactive: -20.8%
CCOc1ccccc1CNc1nc2nc(C)c(CC(=O)OC)c(=O)n2[nH]1	inactive: -9.35%
Cc1cccc(-c2nc(C)c(CCNC(=O)C(=O)Nc3ccc(C)c(C)c3)s2)c1	inactive: 11.7%
Cc1ccc(-n2ncc3c(N4CCN(Cc5ccccc5)CC4)ncnc32)cc1	inactive: 10.1%
COc1ccc(Cl)cc1S(=O)(=O)N1CCN(C(=O)c2cc(-c3ccc(Br)cc3)n[nH]2)CC1	inactive: -5.47%
O=C(CSc1nc(=O)[nH]c2c1CCC2)NCc1ccc(F)cc1	inactive: -2.68%
O=C(CCS(=O)(=O)c1cccc2nonc12)Nc1ccc(F)cc1F	inactive: 7.09%
COc1ccccc1N1CCN(C(=O)c2ccc3c(c2)CCN3S(=O)(=O)c2ccccc2)CC1	inactive: 6.65%
Cc1ccc(-c2nnn3c2nc(NCc2ccc4c(c2)OCO4)c2ccccc23)cc1	inactive: 3.97%
Cc1ccc2nc(-c3c[nH]c4ccccc34)c(Nc3ccc(F)cc3)n2c1	inactive: -8.44%
Cc1ccc(CNC(=O)C(C)n2c(=O)cc(-c3ccccc3)c3c(C)nn(C)c32)cc1 (stereo unspecified)	inactive: -4.09%
O=C(CC(c1cccs1)N1Cc2ccccc2C1=O)Nc1cccc(F)c1 (stereo unspecified)	inactive: 4.31%
Cc1ccc(OCC(=O)Nc2nc(-c3ccc(Br)cc3)ns2)cc1	inactive: 8.27%

Compound	activity change, negative = cytotoxicity
O=C(NCCc1ccc(F)cc1)C(=O)NCC(c1cccs1)S(=O)(=O)c1ccccc1 (stereo unspecified)	inactive: -5.89%
COc1ccc2c(Sc3ccccc3)c(C(=O)NCc3cc(Br)ccc3OC)[nH]c2c1	inactive: 6.67%
COc1ccc(Cn2c(CCC(=O)Nc3ccccc3OC)nc3cccnc32)cc1	inactive: 0.386%
CC(=O)Nc1ccc(NC(=O)C2Cc3ccccc3N2C(=O)c2ccccc2)cc1 (stereo unspecified)	inactive: -1.99%
COc1ccc2c(c1)c(=O)c(C(=O)c1ccc(Cl)cc1)cn2CC(=O)Nc1ccc2c(c1)OCCO2	inactive: -11.2%
CC(C)OCCCn1c(=O)c2ccccc2n2c(-c3ccccc3F)nnc12	inactive: -2.3%
Cc1oc2ccc(O)c(CN3CCCC(C)C3)c2c1C(=O)Nc1ccccc1 (stereo unspecified)	inactive: -3.48%
O=C(CSc1cn(CCNC(=O)c2c(F)cccc2F)c2ccccc12)Nc1ccccc1F	inactive: -6.05%
COc1cccc2[nH]c(C(=O)NCc3ccc4c(c3)CCN4C(=O)c3ccc(F)cc3)cc12	inactive: -6.39%
CCc1c(C)nc2nc(-c3ccccc3)nn2c1NCc1ccc(C)cc1	inactive: -16%
COc1ccc(CNC(=O)c2ccc(-c3nc(CS(=O)c4ccc(C)cc4)c(C)o3)cc2)cc1 (stereo unspecified)	inactive: -18.8%
COc1ccc(CNC(=O)CS(=O)(=O)c2cccc3nsnc23)cc1	inactive: -5.33%
Cc1ccc(OC(=O)CSc2nnc(-c3cccs3)o2)c(C)c1	inactive: 0.437%
CC1=C(C(=O)OC2CCCCCC2)C(c2ccc(Cl)cc2)CC(=O)N1 (stereo unspecified)	inactive: 30%
COc1ccc(Cl)cc1C(=O)NCc1nc(-c2cccc(C)c2)no1	inactive: -15.2%
O=C(c1ccc([N+](=O)[O-])cc1)N1c2ncnn2C2(CCCCC2)[C@@H]2CCCC[C@@H]21	inactive: -3.98%
COc1cccc(NC(=O)C2CCN(c3nnc(-n4c(C)ccc4C)s3)CC2)c1	inactive: 18.1%
Cc1cc2c(cc1S(=O)(=O)Nc1cccc(Cl)c1C)OCCN2C	inactive: -8.82%
Cc1ccc(Cl)cc1N1CCN(C(=O)COCc2cc(-c3ccc4c(c3)OCO4)on2)CC1	inactive: -2.84%
Cc1c(-c2nc(-c3ccc4c(c3)OCO4)no2)nnn1-c1cccc(C(F)(F)F)c1	inactive: -1.89%
CC1=C(C(=O)Nc2cccc(C(F)(F)F)c2)C2(CCN(C(C)C)CC2)OC1=O	inactive: 25.9%
Cc1ccc(NC(=O)CCn2cnc3onc(-c4ccc(F)cc4)c3c2=O)c(Br)c1	inactive: 21.6%
CC(C)Oc1ccc(CNS(=O)(=O)c2ccc(-c3cc(C(F)(F)F)on3)s2)cc1	inactive: -0.774%
Cc1ccc2nc(CN3CCN(S(=O)(=O)c4ccc(F)cc4)CC3)oc2c1	inactive: -13.4%
